Values joined by “and” are separate entries in the source; they are usually repeats but may differ in a detail not shown here. Equal values may be shown once. Out of some 16,000 compounds screened, about 40 (0.2%) were called active. Inconclusive results (about 1%) are left out. The call rests on the fitted dose curve; in most records, active means well fitted activation curve with a large enough effect; inconclusive means small, poorly fitted or top-dose-only effect, or another doubt; inactive means no such curve, though single readings can be large or run the other way. The list shows a part of the results.
On the % scale 0 is the no-effect control and ±100 the full control effect.

In this experiment the target is Rap guanine nucleotide exchange factor 4 (Homo sapiens) (UniProt Q8WZA2). Nature of the experiment: Validation qHTS for agonist of cAMP-regulated guanine nucleotide exchange factor 4 (EPAC2).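 Further: exchange makes BODIPY-GDP fluorescence drop when released from Rap1B; series mostly up to about 150 µM.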 The conditions noted are these: EPAC2 Rap1B BODIPY-GDP exchange, fluorescence; activation: hits give high values. The gist of the method: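 Signal normalized against 6.5 mM cAMP as agonist control. Mix of EPAC2 (100 nM), RAP1B-BODIPY-GDP (250 nM) and GDP (50 uM) was read kinetically at 480/540 nm, every 5 min over 30 min, after 5 min room-temperature incubation with compound.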
Chain of UniProt Q8WZA2 (Q8WZA2 whole entry, looked up): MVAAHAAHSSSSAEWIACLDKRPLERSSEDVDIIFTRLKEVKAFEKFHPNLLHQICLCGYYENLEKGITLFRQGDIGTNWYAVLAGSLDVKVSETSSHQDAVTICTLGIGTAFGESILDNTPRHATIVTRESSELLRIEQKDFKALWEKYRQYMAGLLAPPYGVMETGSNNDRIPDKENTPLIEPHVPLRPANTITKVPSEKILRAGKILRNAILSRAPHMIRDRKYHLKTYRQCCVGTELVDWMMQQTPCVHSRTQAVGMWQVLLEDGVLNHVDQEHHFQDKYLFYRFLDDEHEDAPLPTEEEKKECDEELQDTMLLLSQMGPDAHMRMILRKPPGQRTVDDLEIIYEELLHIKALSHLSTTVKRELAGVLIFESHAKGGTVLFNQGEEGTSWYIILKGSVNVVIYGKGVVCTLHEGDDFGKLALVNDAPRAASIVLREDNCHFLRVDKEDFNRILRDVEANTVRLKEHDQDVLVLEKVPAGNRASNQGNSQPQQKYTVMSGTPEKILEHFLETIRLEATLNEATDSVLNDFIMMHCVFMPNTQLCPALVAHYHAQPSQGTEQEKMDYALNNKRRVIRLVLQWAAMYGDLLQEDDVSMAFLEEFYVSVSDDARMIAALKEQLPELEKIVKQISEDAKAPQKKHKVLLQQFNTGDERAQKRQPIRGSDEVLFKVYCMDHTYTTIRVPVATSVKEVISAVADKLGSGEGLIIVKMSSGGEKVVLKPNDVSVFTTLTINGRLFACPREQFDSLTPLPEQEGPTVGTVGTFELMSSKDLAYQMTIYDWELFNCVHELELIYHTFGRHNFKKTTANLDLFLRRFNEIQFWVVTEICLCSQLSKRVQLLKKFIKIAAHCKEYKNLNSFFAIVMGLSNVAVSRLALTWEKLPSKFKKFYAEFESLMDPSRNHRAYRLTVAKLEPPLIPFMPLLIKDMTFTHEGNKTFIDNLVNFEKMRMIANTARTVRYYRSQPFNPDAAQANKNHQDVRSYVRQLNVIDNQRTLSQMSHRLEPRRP
On to `COc1ncc2nc(-c3ccc(Cl)cc3)c(=O)n(CCC#N)c2n1`, for which the activation was inactive: -6.31%. With `CCC1(C2CCN(Cc3ccccc3Cl)CC2)NC(=O)N(CC2COc3ccccc3O2)C1=O` (configuration not stated), the activation was inactive: -11.6%. As for `CCC1COCCS(=O)(=O)N1Cc1ccc(F)cc1` (configuration not stated), the activation is inactive: -16.8%. With `COc1ccc([C@H]2c3cc(OC)c(OC)cc3C[C@@H](C)[C@@H]2C)cc1OC`, the activation is inactive: -15.1%. `CNc1ncnc2ccc(-c3ccccc3C#N)cc12`: the activation was inactive: -6.87%. `COc1cc(OC)c(OC)cc1CN1CCCC(c2[nH]ncc2-c2cccc(C(F)(F)F)c2)C1` (configuration not stated): the activation is inactive: -17.4%. Consider `CCC1CN(CCC(=O)NC2CCOC(C)(C)C2)Cc2cc(OC)ccc2O1` (configuration not stated), for which the activation is inactive: -12.4%. As for `Cc1csc(C(C)N(C)C(=O)c2cnn(-c3nccc(-c4cc(C)sc4C)n3)c2C)n1` (configuration not stated), the activation was inactive: -12.6%. Take `Cc1c(N(C)CS(=O)(=O)O)c(=O)n(-c2ccccc2)n1C`: the activation is inactive: -15.3% and inactive: -6.02%. `O=C(c1cnccn1)N1CCC2(CC1)CN(c1ncccn1)C2`: the activation is inactive: -12%. `CC(=O)N1CCC2(CC1)CN(Cc1cc(C(F)(F)F)cc(C(F)(F)F)c1)C2`: the activation is inactive: -17.2%. On to `Cc1cccc(C(=O)NCc2nc(-c3cccc(NC(=O)C4CCCN(C)C4)c3)oc2C)n1` (configuration not stated), for which the activation is inactive: -9.23%. For the compound `C=CCN1[C@@H](Cc2ccccc2)COCCS1(=O)=O`, the activation was inactive: -11.2%. `COc1cc2c3cc1Oc1c(OC)c(OC)cc4c1[C@@H](Cc1ccc(O)c(c1)Oc1ccc(cc1)C[C@@H]3N(C)CC2)N(C)CC4`: the activation is inactive: 0.118%. With `CCCCCCCCCCCCC(O)C(=O)O` (configuration not stated), the activation is inactive: -2.32%.

In the case of `OC1CCN(Cc2ccc3c(c2)CN(Cc2ccc(Oc4ncccn4)cc2)CCO3)CC1`, the activation was inactive: -1.28%.

With `O=c1[nH]c(=O)n(C2CCCO2)cc1F` (configuration not stated), the activation was inactive: -16.5%. For `CC(NCCC(c1ccccc1)c1ccccc1)c1ccccc1` (configuration not stated), the activation is inactive: -13.4%.

`CCCCCCCCCCCCOCCCN`: the activation was inactive: -13.9%.

For `FC(F)(F)c1ccccc1-c1ccc2ncnc(NCc3cccs3)c2c1`, the activation was inactive: -1.68%. With `CC1=C(/C=C/C(C)=C/C=C/C(C)=C/C=C/C=C(C)/C=C/C=C(C)/C=C/C2=C(C)C(=O)C(O)CC2(C)C)C(C)(C)CC(O)C1=O` (configuration not stated) the figure was inactive: -1.86%. For the compound `Nc1ncnc2c1c(I)cn2[C@@H]1C[C@H](N)[C@@H](O)[C@H]1O`, the activation was inactive: -30.9%. Take `CN(C)c1ccc(-c2nc(N(C)Cc3ccco3)c3ccccc3n2)cc1`: the activation is inactive: 1.02%.

`CCCC[C@H]1COCCS(=O)(=O)N1Cc1cccc(Cl)c1`: the activation was inactive: -31.6%.

On to `CNc1cc(OC)c(C(=O)N[C@H]2CCN(Cc3ccccc3)[C@H]2C)cc1Cl`, for which the activation was inactive: -27.4%.

Turning to `C[C@H](CCC(=O)O)[C@H]1CC[C@H]2[C@@H]3[C@H](O)C[C@@H]4C[C@H](O)CC[C@]4(C)[C@H]3CC[C@]12C`, the activation is inactive: -6.24%. With `Cc1ccc(C(=O)Nc2cnn(-c3ccc(C(=O)N(C)Cc4n[nH]c5c4CCCC5)cc3)c2)c(C)c1`, the activation is inactive: 5.67%. For `COc1ccccc1C1CN(CCNC(=O)[C@@H]2CSC(=O)N2)Cc2ccccc2O1` (some centres not stated), the activation is inactive: 3.29%. Take `C[N+](C)(C)CC[N+]1(C)Cc2c(Cl)c(Cl)c(Cl)c(Cl)c2C1`: the activation was inactive: -22.1% and inactive: 10.8%.

Regarding `CN1CCN(c2c(F)cc3c(=O)c(C(=O)O)cn(CCF)c3c2F)CC1`, the activation was inactive: -19.7%. As for `Cc1cccc(CNC(=O)c2c3n(c(C)cc2=O)-c2ccccc2SC(c2sccc2C)C3)n1` (configuration not stated), the activation was inactive: -8.95%. `COc1cccc(Cn2c(=O)c(-c3cccs3)nc3cnc(Nc4ccccc4)nc32)c1`: the activation was inactive: -80.1%. As to `O=C(/C=C/c1ccc(O)c(O)c1)OCCc1ccccc1`, the activation was inactive: 0.549% and inactive: -9.73% and inactive: -25.3%. With `CCC(=O)NCc1nc(-c2cccc(NC(=O)c3ccc(C)s3)c2)oc1C`, the activation was inactive: -13.9%. On to `NCC(O)CC(=O)O` (configuration not stated), for which the activation is inactive: -10.2%.

Take `COc1ccc(CN2CC[C@H]3C=CC[C@@H](C(=O)N4CCN(c5ccccc5)CC4)[C@H]3C2=O)cc1OC`: the activation is inactive: -20.9%.

In the case of `[C-]#[N+]c1cc(-c2ccncc2)c(C)[nH]c1=O`, the activation was inactive: -4.45%.

Turning to `COCCn1c(=O)cnc2cnc(Oc3ccc(OC)cc3)nc21`, the activation was inactive: -0.689%. `CC(=O)N[C@@H](C)C(=O)NCC1Cc2cc(C)cc(-c3cnccn3)c2O1` (some centres not stated): the activation is inactive: -5.02%.

As to `COc1ccccc1C1CN(CC(=O)NCC2OCCc3ccccc32)Cc2ccccc2O1` (configuration not stated), the activation is inactive: 1.71%. Turning to `COc1ccc(-c2nc3cncnc3n(-c3ccccc3)c2=O)cc1`, the activation was inactive: -27.6%. For `COc1ncc2ncc(=O)n(C[C@H]3CCCO3)c2n1`, the activation is inactive: -6.06%. As to `CC(=O)OCC(CCn1cnc2cnc(N)nc21)COC(C)=O`, the activation was inactive: -11.2%. As to `NNc1nncc2ccccc12`, the activation was inactive: -13.7% and inactive: 4.51% and inactive: -15.7%. As to `COCC(=O)N1CCC[C@@]2(CCN(C(=O)Nc3ccccc3)C2)C1`, the activation was inactive: 1.32%. As for `Cc1ccc(CN2CCOc3ccc(CN4CCC(O)(c5cccnc5)CC4)cc3C2)cc1`, the activation was inactive: -12.6%. With `N[C@](CC1c2ccccc2Oc2ccccc21)(C(=O)O)[C@H]1C[C@@H]1C(=O)O` the figure was inactive: 0.65%. Consider `CC[C@H](C)[C@H](NC(=O)[C@H](CCCN=C(N)N)NC(=O)[C@H](CCCN=C(N)N)NC(=O)[C@H](CC(C)C)NC(=O)[C@H](Cc1ccccc1)NC(=O)CNC(=O)CN)C(=O)N[C@@H](CCCN=C(N)N)C(=O)N1CCC[C@H]1C(=O)N[C@@H](CCCCN)C(=O)N[C@@H](CC(C)C)C(=O)N[C@@H](CCCCN)C(=O)O`, for which the activation was inactive: -3.75%. Consider `COc1cccc(Cn2c(=O)cnc3cnc(OCc4ccccc4)nc32)c1`, for which the activation was inactive: -0.94%. Consider `C1CNCCN1`, for which the activation was inactive: -12.5% and inactive: 1.71%. In the case of `COc1ncc2nc(-c3cc(F)cc(F)c3)c(=O)n(C)c2n1`, the activation was inactive: -2.89%.

Take `Cc1c(C(=O)NCCCc2ccncc2)cnn1-c1ncc2c(n1)-c1ccccc1CC2`: the activation is inactive: -5.54%.
